# Laboratory results as given in PubChem BioAssay AID504333 (National Center for Advancing Translational Sciences (NCATS), 2011).
# The whole screen tested about 360,000 compounds, of which about 16,000 (4.4%) were called active. The shares of active, inactive and inconclusive entries below differ from those in the screen. The call rests on the fitted dose curve; in most records, active means well fitted inhibition curve with a large enough effect; inconclusive means small, poorly fitted or top-dose-only effect; inactive means no such curve, though single readings can be large or run the other way. Potencies of inconclusive entries are doubtful fits and often do not repeat.
# Biological target: Bromodomain adjacent to zinc finger domain protein 2B (Homo sapiens) (UniProt Q9UIF8)
# Assay: qHTS Assay for Inhibitors of BAZ2B; further: nearly all actives have a fitted effect of over 60% in size
# Details: AlphaScreen BAZ2B-H3K14Ac peptide displacement; activity change, negative = inhibition: at 114 µM (top of the series)
# Outline: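 Multi-concentration screen (max 110 uM) measuring displacement of acetylated histone H3 peptide from BAZ2B by AlphaScreen, using 50 nM protein, 50 nM peptide and 10 ug/mL streptavidin donor plus Ni-chelate acceptor beads.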
# On the % scale 0 is the no-effect control and ±100 the full control effect; potency means the concentration at half of the fitted maximal effect; tags describe the fitted curve by direction and shape.
# UniProt Q9UIF8, sequence (Q9UIF8 whole entry, looked up, the tested form may be a part): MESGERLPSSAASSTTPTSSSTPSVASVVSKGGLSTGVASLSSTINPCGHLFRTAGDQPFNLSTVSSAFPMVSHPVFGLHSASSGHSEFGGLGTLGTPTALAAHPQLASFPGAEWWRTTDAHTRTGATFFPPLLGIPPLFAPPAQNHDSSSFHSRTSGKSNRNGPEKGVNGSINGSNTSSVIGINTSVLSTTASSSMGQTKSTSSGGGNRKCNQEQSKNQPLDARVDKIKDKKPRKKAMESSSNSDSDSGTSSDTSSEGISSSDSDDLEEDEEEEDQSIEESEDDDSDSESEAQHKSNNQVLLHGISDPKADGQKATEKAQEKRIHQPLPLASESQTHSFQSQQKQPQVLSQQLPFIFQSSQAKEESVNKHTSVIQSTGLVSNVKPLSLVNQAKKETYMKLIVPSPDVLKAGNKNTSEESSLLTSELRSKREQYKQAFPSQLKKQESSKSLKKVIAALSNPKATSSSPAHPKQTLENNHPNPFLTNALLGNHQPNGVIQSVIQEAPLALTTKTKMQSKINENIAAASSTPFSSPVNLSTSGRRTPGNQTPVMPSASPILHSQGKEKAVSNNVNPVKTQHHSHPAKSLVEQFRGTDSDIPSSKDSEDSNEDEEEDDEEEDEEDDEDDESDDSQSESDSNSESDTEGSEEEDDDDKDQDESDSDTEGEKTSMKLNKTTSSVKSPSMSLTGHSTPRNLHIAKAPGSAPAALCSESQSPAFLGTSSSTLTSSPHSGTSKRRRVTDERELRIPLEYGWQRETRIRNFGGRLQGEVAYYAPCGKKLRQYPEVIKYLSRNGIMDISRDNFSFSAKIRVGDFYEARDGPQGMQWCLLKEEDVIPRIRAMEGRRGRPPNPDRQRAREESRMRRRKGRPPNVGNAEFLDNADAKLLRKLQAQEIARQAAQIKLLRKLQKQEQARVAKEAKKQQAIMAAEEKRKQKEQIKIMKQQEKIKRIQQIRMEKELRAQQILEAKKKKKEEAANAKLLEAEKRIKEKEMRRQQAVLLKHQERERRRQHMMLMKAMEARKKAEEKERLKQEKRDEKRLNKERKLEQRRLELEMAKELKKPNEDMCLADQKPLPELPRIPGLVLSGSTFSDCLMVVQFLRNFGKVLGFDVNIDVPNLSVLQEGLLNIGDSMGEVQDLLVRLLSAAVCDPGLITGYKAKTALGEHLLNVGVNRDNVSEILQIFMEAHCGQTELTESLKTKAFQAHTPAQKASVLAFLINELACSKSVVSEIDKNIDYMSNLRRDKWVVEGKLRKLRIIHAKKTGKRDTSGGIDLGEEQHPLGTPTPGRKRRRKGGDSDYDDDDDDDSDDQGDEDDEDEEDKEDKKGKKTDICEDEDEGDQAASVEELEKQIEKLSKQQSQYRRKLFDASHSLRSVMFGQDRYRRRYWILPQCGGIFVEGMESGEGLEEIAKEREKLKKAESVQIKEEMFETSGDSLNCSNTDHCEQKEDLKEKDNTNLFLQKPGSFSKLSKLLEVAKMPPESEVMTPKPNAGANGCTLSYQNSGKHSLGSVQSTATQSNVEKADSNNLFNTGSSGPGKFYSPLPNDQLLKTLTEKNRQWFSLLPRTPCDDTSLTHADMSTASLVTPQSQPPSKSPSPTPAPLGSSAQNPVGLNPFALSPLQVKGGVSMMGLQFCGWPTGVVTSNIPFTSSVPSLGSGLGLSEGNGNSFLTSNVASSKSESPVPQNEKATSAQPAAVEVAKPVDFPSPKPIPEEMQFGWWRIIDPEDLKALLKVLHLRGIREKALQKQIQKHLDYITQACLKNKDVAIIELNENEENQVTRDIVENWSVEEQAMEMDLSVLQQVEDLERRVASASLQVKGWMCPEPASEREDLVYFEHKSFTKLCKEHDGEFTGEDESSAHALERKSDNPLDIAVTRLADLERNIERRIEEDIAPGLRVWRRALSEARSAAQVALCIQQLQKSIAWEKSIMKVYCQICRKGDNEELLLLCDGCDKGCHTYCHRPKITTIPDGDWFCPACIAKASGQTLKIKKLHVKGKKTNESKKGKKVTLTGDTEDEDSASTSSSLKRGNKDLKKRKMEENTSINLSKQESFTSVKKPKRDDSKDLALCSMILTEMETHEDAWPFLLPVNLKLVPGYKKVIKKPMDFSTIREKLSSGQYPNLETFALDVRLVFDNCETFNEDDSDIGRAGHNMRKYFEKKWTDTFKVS
SMILES,Potency,"activity change, negative = inhibition"
O=[N+]([O-])c1ccc(/C=C/C2=NN(c3ccccc3)C(c3ccco3)C2)cc1 (stereo not given),active: 50.1 µM,–
O=C(COC(=O)c1ccc(N2CCOCC2)c([N+](=O)[O-])c1)Nc1ccc2c(c1)OCO2,"inconclusive: 89.1 µM [inhibitor, single point]",–
O=C(N/N=C/c1ccco1)c1cccc([N+](=O)[O-])c1,"inconclusive: 89.1 µM [inhibitor, single point]",–
COc1ccccc1NC(=O)CCc1nc2sc3c(c2c(=O)[nH]1)CCCC3,"inconclusive: 50.1 µM [inhibitor, partial curve]",–
Cc1nc(C(=O)N2CCc3c([nH]c4ccccc34)C2c2cc(F)ccc2F)cs1 (stereo not given),"inconclusive: 20 µM [inhibitor, full curve]",–
O=C(CN1CCN(c2ccccc2Cl)CC1)NC1CCCc2ccccc21 (stereo not given),active: 20 µM,–
CCN(CC)CCCN(C(=O)c1ccc(Br)cc1)c1nc(-c2ccc(OC)cc2)cs1,active: 50.1 µM,–
O=C1c2ccccc2C(=O)c2c1cccc2N1CCN(Cc2ccccc2)CC1,active: 5.01 µM,–
CC1CCC/C(=N\Nc2ccc(Cl)c(C(=O)O)c2)C1 (stereo not given),–,inactive: -36.7%
COc1cccc(-c2nc(S(=O)(=O)c3ccc(C)cc3)c(N3CCCCCC3)o2)c1,"inconclusive: 8.91 µM [inhibitor, full curve, poor fit]",–
COc1ccc(/C=C/C(=O)Nc2ccc(C)cc2)cc1,–,inactive: -0.293%
Cc1ccc(C(=O)NC(Cc2c[nH]c3ccccc23)C(=O)O)cc1 (stereo not given),"inconclusive: 89.1 µM [inhibitor, single point]",–
Cc1noc(C)c1COc1ccccc1C(=O)NNC(=O)C(C)Oc1ccccc1F (stereo not given),–,inactive: 9.44%
O=C(O)/C=C/c1ccc(O)c(O)c1,"inconclusive: 31.6 µM [inhibitor, partial curve, poor fit]",–
Cc1ccc(NC(=O)Cc2ccc(NC(=O)N3CCCCc4ccccc43)cc2)cc1Cl,–,inactive: -3.4%
CCCNC(=O)OC[C@H]1O[C@H](CCO/N=C/c2ccc(C(=O)N3[C@H](c4ccc(C)cc4)[C@@H](C)CC[C@H]3C(=O)OC)cc2)C=C[C@@H]1Oc1ccc(OC)cc1,–,inactive: -35.7%
O=C(N/N=C/c1ccc[nH]1)c1ccc(COc2cccc3cccnc23)cc1,"inconclusive: 50.1 µM [inhibitor, partial curve, poor fit]",–
O=c1c(-c2cccc3ccccc23)[n+]([O-])c2ccccc2n1O,"inconclusive: 89.1 µM [inhibitor, single point]",–
COC(=O)C1=C(C(=O)OC)C(c2cc([N+](=O)[O-])ccc2O)c2sc(=O)[nH]c2S1 (stereo not given),"inconclusive: 79.4 µM [inhibitor, partial curve]",–
CN(C)c1ccc(CNC(=O)C2CCN(S(=O)(=O)c3ccc4c(c3)CCCC(=O)N4)CC2)cc1,"inconclusive: 31.6 µM [inhibitor, partial curve]",–
COc1ccc(NC(=S)NNc2ccc(C(=O)O)cc2)cc1,–,inactive: 9.82%
Cc1ccc(-c2nc(-c3ccccn3)no2)cc1,–,inactive: 8%
O=C1C(=O)c2ccccc2C(O)=C1CCCCl,"inconclusive: 79.4 µM [inhibitor, single point]",–
O=c1[nH]n2c(=O)c3c([nH]c2c1N=Nc1cccc(Cl)c1)CCC3,active: 35.5 µM,–
Cc1ccccc1SCC(=O)OCC(=O)Nc1ccc(N(C)C)cc1,active: 39.8 µM,–

SMILES,Potency,"activity change, negative = inhibition"
CCOC(=O)/C(=C\c1cn(C)c2ccccc12)[N+](=O)[O-],"inconclusive: 50.1 µM [inhibitor, partial curve]",–
CCOc1ccc(NC(=NCc2ccc3c(c2)OCO3)SC2CC(=O)N(c3ccc(C(=O)O)cc3)C2=O)cc1 (stereo not given),"inconclusive: 50.1 µM [inhibitor, partial curve]",–
CCC(Sc1nccn1C)C(=O)Nc1ccc(Cl)cn1 (stereo not given),"inconclusive: 79.4 µM [inhibitor, single point]",–
O=C(/C=C\c1ccco1)c1ccc(NC(=O)c2ccco2)cc1,active: 44.7 µM,–
Cn1cccc1Cc1nnc(SCC(=O)NCc2ccco2)n1-c1ccc(F)cc1,"inconclusive: 79.4 µM [inhibitor, single point]",–
Cc1cc(C)cc(N=Cc2ccc([N+](=O)[O-])s2)c1,active: 25.1 µM,–
CCC(=O)Nc1ccc(C(=O)NCCCn2ccnc2)cc1,"inconclusive: 89.1 µM [inhibitor, single point]",–
CCOC(=O)C1=C(COC(=O)Cc2ccc(Cl)cc2)NC(=O)NC1C (stereo not given),–,inactive: 7.74%
CCN(CC)c1ccc(CC(=O)NC(C)Cc2ccccc2)cc1 (stereo not given),"inconclusive: 44.7 µM [inhibitor, partial curve]",–
CCOC(=O)c1cc2c(=O)n3ccccc3nc2n(Cc2ccco2)c1=NC(=O)c1ccc(Br)cc1,"inconclusive: 89.1 µM [inhibitor, single point]",–
Nc1n[nH]c(N)c1N=Nc1ccccc1F,"inconclusive: 44.7 µM [inhibitor, partial curve]",–
Cc1cccc(Oc2ccccc2N)c1,"inconclusive: 89.1 µM [inhibitor, single point]",–
CCc1cccc(OCCn2ccnc2)c1,active: 50.1 µM,–
O=C(NNC(=O)C1CCCN(S(=O)(=O)c2cccc(F)c2)C1)C1CC1 (stereo not given),–,inactive: 1.09%
COc1ccccc1Nc1c2c(nc3ccc(N)cc13)CCCC2,active: 35.5 µM,–
COCCCNC1=C(Cl)C(=O)c2ccccc2C1=O,active: 35.5 µM,–
CSc1nnc(-c2ccccc2)c(-c2ccccc2)n1,–,inactive: -1.08%
CCCn1c(=O)c(C(=O)NCc2ccccc2)c(O)c2ccccc21,–,inactive: 34.8%
O=C(CCNS(=O)(=O)c1ccc(Br)cc1)NCc1ccc(Cl)cc1,–,inactive: -3.56%
C=CCNC(=O)c1onc(CSc2cccc(C)c2)c1C(=O)O,"inconclusive: 100 µM [inhibitor, single point]",–
NC(=O)C1CCCN1S(=O)(=O)c1ccc2ccccc2c1 (stereo not given),–,inactive: -3.93%
O=C(NCc1ccc(Cl)cc1)c1cnccn1,–,inactive: -7.67%
COc1cc(/C=N\Nc2nc3ccccc3[nH]2)cc(OC)c1OC,"inconclusive: 56.2 µM [inhibitor, partial curve]",–
Cc1[nH]c2ccccc2c1C(=O)C(=O)N1CCOCC1,"inconclusive: 3.55 µM [inhibitor, single point]",–
CC(=O)N1CCCc2cc(S(=O)(=O)CCC(=O)N3CCN(c4cccc(C)c4)C(C)C3)ccc21 (stereo not given),active: 50.1 µM,–

SMILES,Potency,"activity change, negative = inhibition"
N#CC1=C(N)NC(SCc2ccc(Br)cc2)=C(C#N)C12CCCCC2,"inconclusive: 31.6 µM [inhibitor, partial curve]",–
Cc1cccc(Cn2cc(/C=C/[N+](=O)[O-])c3ccccc32)c1,–,inactive: -2.05%
COC(=O)Nc1ccc2c(c1)N(C(=O)CCN1CCN3CCCC3C1)c1ccccc1S2 (stereo not given),"inconclusive: 79.4 µM [inhibitor, single point]",–
Nc1cc2c(cc1C(=O)c1ccccc1F)OCCO2,"inconclusive: 44.7 µM [inhibitor, partial curve]",–
Cc1nc(-c2ccccc2O)n(-c2ccccc2)n1,–,inactive: 3.85%
COCCCNCCCOc1ccc(C(C)(C)c2ccccc2)cc1,active: 44.7 µM,–
CCOc1ccc(NCC(=O)Nc2ccc(C)cc2C)cc1,"inconclusive: 89.1 µM [inhibitor, single point]",–
COc1ccc(CNc2ncccc2[N+](=O)[O-])cc1,"inconclusive: 70.8 µM [inhibitor, single point]",–
Cc1cccc(C)c1N1C(=O)CC(N2CCSCC2)C1=O (stereo not given),"inconclusive: 100 µM [inhibitor, partial curve]",–
CCC(C)[C@H](NC(=O)NCCCn1ccnc1)C(=O)OC (stereo not given in full),–,inactive: -6.75%
COC(=O)c1sc2cccc(F)c2c1S(=O)(=O)N1CCN(c2cccc(OC)c2)CC1,–,inactive: -29.1%
COc1ccc(Nc2nc3ccccc3nc2NS(=O)(=O)c2ccc(C)cc2)c(OC)c1,–,inactive: 2.35%
CCOC(=O)C1=C(CSc2nc(C)cc(C)c2C#N)OC(N)=C(C#N)C1c1ccccc1 (stereo not given),–,inactive: -6.91%
COc1ccc2c(c1)c1ccc3c(c1n2C)C(=O)C=CC3=O,"inconclusive: 2.82 µM [inhibitor, full curve]",–
CCCn1c(N)c(N(CCOC)C(=O)c2ccc(N(C)S(=O)(=O)c3ccc(C)cc3)cc2)c(=O)[nH]c1=O,"inconclusive: 89.1 µM [inhibitor, single point]",–
Cc1ccc(-c2nnc(SCC(=O)NCCN3C(=O)CSC3=O)n2C)cc1,"inconclusive: 25.1 µM [inhibitor, single point]",–
COc1cccc(OCCCN2CCCCCC2)c1,active: 56.2 µM,–
Cc1cc(/C=C2/C(=O)N(C)C(=S)N2C)c(C)n1C1CC1,"inconclusive: 79.4 µM [inhibitor, partial curve]",–
COc1ccc(CNc2ccc(Cl)cc2)cc1Cn1ccnc1,active: 25.1 µM,–
COc1ccc(OCCCCN2CCC(C)CC2)cc1,active: 79.4 µM,–
CCCCNC(=O)c1onc(CSc2ccccc2CC)c1C(=O)O,"inconclusive: 79.4 µM [inhibitor, single point]",–
COc1ccccc1NC1=C(Cl)C(=O)N(c2ccccc2)C1=O,"inconclusive: 31.6 µM [inhibitor, full curve]",–
Cc1cccc(NC(=O)c2cc3c(=O)n4ccccc4nc3s2)c1,"inconclusive: 89.1 µM [inhibitor, single point]",–
Cc1ccc(N(C)C(=O)CC(C)S(=O)(=O)c2ccc3c(c2)NC(=O)CO3)cc1 (stereo not given),"inconclusive: 89.1 µM [inhibitor, single point]",–
Cn1c(SCC(=O)Nc2ccc3c(c2)n(C)c(=O)n3C)nnc1-c1ccncc1,"inconclusive: 79.4 µM [inhibitor, single point]",–
